Source: publication PMC10663837 (iScience, 2023)

Molecular target: Human Hsp90β, purified (human, UniProt P08238)
Experiment: pull-down

B1: PD-L1 endogenous in E0771 cells (natural protein)
chain: not shown
B1: binds.
